Experimental findings from the antibiotic and cytotoxicity screens of Wong et al. (2023) are described below.

Molecules are shown by their SMILES. This is one part of the list.

This assay deals with HSkMC (human skeletal muscle cells). The experiment in a line: cytotoxicity call (relative viability < 0.9). The note with it: 10 µM.
`O=C1[C@@H]2[C@H](O)CS[C@@H]2C(=O)N1c1ccccc1`: the cytotoxicity call was “inactive”.

In the case of `C[C@H]1CN([C@@H](C)CO)C(=O)c2cc(NC(=O)Nc3cccc4ccccc34)ccc2O[C@H]1CN(C)Cc1ccc2c(c1)OCO2`, the cytotoxicity call was “inactive”.

In the case of `C[C@@H]1CN([C@H](C)CO)C(=O)c2cc(NC(=O)c3ccccc3)ccc2O[C@@H](C)CCCCO[C@@H]1CN(C)C(=O)C1CCCCC1`, the cytotoxicity call is “inactive”.

Consider `O=C(C[C@@H]1C[C@H]2c3cc(NC(=O)NC4CCCC4)ccc3O[C@H]2[C@@H](CO)O1)NCc1ccc(-c2ccccc2)cc1`, for which the cytotoxicity call is “inactive”.

Take `C[C@H]1CCCCO[C@H](CN(C)C(=O)CCCN(C)C)[C@@H](C)CN([C@@H](C)CO)C(=O)c2cc(NC(=O)Nc3cccc4ccccc34)ccc2O1`: the cytotoxicity call is “inactive”.

As for `O=C(O)c1cc2c([nH]c1=O)CCC[C@@H]2O`, the cytotoxicity call is “inactive”.

For `C[C@@H]1CCCCO[C@H](CN(C)Cc2ccc(C(F)(F)F)cc2)[C@H](C)CN([C@H](C)CO)C(=O)c2cc(NC(=O)Nc3cccc4ccccc34)ccc2O1`, the cytotoxicity call is “inactive”.

On to `O=C(C[C@@H]1CC=CC[C@H](NC(=O)OCC2c3ccccc3-c3ccccc32)C(=O)OC[C@H](Cc2ccccc2)NC1=O)N[C@H](CO)Cc1ccccc1`, for which the cytotoxicity call was “inactive”.

For `C[C@@H]1CN([C@H](C)CO)C(=O)c2cc(NC(=O)Cn3cnnn3)ccc2O[C@H]1CN(C)S(=O)(=O)c1ccc(Cl)cc1`, the cytotoxicity call was “inactive”.

Consider `C[C@@H]1CCCCO[C@@H](CN(C)C(=O)Nc2ccc(F)cc2)[C@H](C)CN([C@@H](C)CO)C(=O)c2cc(NC(=O)Nc3cccc4ccccc34)ccc2O1`, for which the cytotoxicity call is “inactive”.

For the molecule `C[C@@H]1CN([C@@H](C)CO)C(=O)CCCn2nncc2CO[C@@H]1CN(C)Cc1cccc2c1OCCCO2`, the cytotoxicity call was “inactive”.

`CS(=O)(=O)Nc1ccc2c(c1)[C@H]1C[C@H](CC(=O)NCC3CC3)O[C@@H](CO)[C@H]1O2`: the cytotoxicity call is “inactive”.

As to `CO[C@H]1O[C@@H](COC(C)=O)[C@@H](OC(C)=O)C(C#N)(C#N)[C@@H]1OC(C)=O`, the cytotoxicity call was “inactive”.

As for `CC(C)NC(=O)Nc1cccc2c1O[C@@H](CN(C)Cc1ccc3c(c1)OCO3)[C@H](C)CN([C@H](C)CO)C2=O`, the cytotoxicity call was “inactive”.

`COCC(=O)Nc1ccc2c(c1)OC[C@@H](C)N(Cc1ccccc1OC)C[C@H](C)[C@@H](OC)CN(C)C2=O`: the cytotoxicity call was “inactive”.

Regarding `C=CC[C@@H](CC(=O)N(CCO)Cc1ccccc1)C(=O)NCCOC(=O)[C@H](CC=C)CC(=O)OC(C)(C)C`, the cytotoxicity call is “inactive”.

As for `CC(C)NC(=O)Nc1ccc2c(c1)C(=O)N([C@H](C)CO)C[C@@H](C)[C@H](CN(C)C(=O)NC1CCCCC1)O2`, the cytotoxicity call is “inactive”.

For `C[C@@H]1CN([C@@H](C)CO)C(=O)c2cc(NC(=O)C3CCCCC3)ccc2O[C@@H](C)CCCCO[C@@H]1CN(C)S(=O)(=O)c1ccc(F)cc1`, the cytotoxicity call was “inactive”.

For `COc1ccc(S(=O)(=O)Nc2ccc3c(c2)C(=O)N([C@H](C)CO)C[C@@H](C)[C@H](CN(C)C(=O)Nc2cccc4ccccc24)O3)cc1`, the cytotoxicity call was “inactive”.

Consider `C[C@@H]1CN([C@@H](C)CO)S(=O)(=O)c2ccc(Br)cc2O[C@H]1CN(C)C(=O)C1CCOCC1`, for which the cytotoxicity call is “inactive”.

For `C[C@@H]1CN([C@@H](C)CO)S(=O)(=O)c2ccc(/C=C/c3ccccc3)cc2O[C@@H]1CN(C)C(=O)Nc1cc(F)ccc1F`, the cytotoxicity call was “inactive”.

As for `C[C@@H]1CN([C@@H](C)CO)C(=O)c2cc(NS(=O)(=O)c3ccc(F)cc3)ccc2O[C@@H]1CN(C)C(=O)Nc1cccc2ccccc12`, the cytotoxicity call is “inactive”.

With `C[C@H]1CN([C@@H](C)CO)C(=O)c2cccc(NC(=O)c3ccncc3)c2O[C@@H]1CN(C)Cc1ccc2c(c1)OCO2`, the cytotoxicity call was “inactive”.

As to `CN1CCN(C(=O)[C@H]2[C@H](CO)[C@H]3Cn4c(cccc4=O)[C@@H]2N3S(=O)(=O)c2ccccc2F)CC1`, the cytotoxicity call is “inactive”.

For the molecule `Cc1cccc(C)c1NC(=O)[C@@H](C)N`, the cytotoxicity call was “inactive”.

In the case of `C[C@@H]1CN([C@H](C)CO)C(=O)c2cc(NC(=O)Cn3cnnn3)ccc2O[C@H]1CN(C)C(=O)Nc1ccc2c(c1)OCO2`, the cytotoxicity call was “inactive”.

As for `C[C@H]1CC/C=C\[C@H]2O[C@@]34C=CCN(c5ccc(Cl)cc5)C(=O)[C@H]3N(CCCO)C(=O)[C@]4(C)[C@@H]2C(=O)O1`, the cytotoxicity call was “inactive”.

With `O=C(C[C@H]1C=C[C@H](NC(=O)Cc2ccccn2)[C@H](CO)O1)NCCCN1CCOCC1`, the cytotoxicity call is “inactive”.

With `C[C@@H]1CN([C@H](C)CO)C(=O)c2cc(NC(=O)Nc3cccc4ccccc34)ccc2O[C@H]1CN(C)CC1CCCCC1`, the cytotoxicity call was “inactive”.
